Test results from the supplement of paper PMC7125110.
± gives the standard error. Variants at the floor of the assay are shown more often than the library holds them.

B1: glmS ribozyme (parent)
chain: AUAAAAGCGCCAGAACUACAGAAAUGUAGUUGACGAGGAGGAGGUUUAUCGAAUUUUCGGCGGAUGCCUCCAAA

Columns and labels:
Settings in all cases: with glucosamine-6-phosphate
glucosamine-6-phosphate [1] = variants of: B1; test: self-cleavage kobs at 40 uM GlcN6P; higher = faster cleavage; RNA array
How it was run: (§1)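 Sequenced MiSeq chips were the platform: E. coli RNA polymerase transcribed barcoded ribozyme variants on them in situ, and a hybridised Cy3 probe tracked these at 37 °C. After glucosamine-6-phosphate (40 μM to 10 mM) in HEPES/KCl/Mg(OAc)2 buffer was flowed in, tiles were imaged over ~14 h. Signals normalised to baseline and to non-cleaving reference variants were reduced to per-tile medians and fit to one- or two-exponential decays to obtain kobs. kcat and KM were derived through weighted Michaelis–Menten fits across concentrations.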

glucosamine-6-phosphate [2] = variants of: B1; test: self-cleavage kobs at 2500 uM GlcN6P; higher = faster cleavage; RNA array
How it was run: as §1

glucosamine-6-phosphate [3] = variants of: B1; test: self-cleavage kobs at 10000 uM GlcN6P; higher = faster cleavage; RNA array
How it was run: as §1

glucosamine-6-phosphate [4] = variants of: B1; test: self-cleavage kobs at 640 uM GlcN6P; higher = faster cleavage; RNA array
How it was run: as §1

glucosamine-6-phosphate [5] = variants of: B1; test: self-cleavage kobs at 160 uM GlcN6P; higher = faster cleavage; RNA array
How it was run: as §1

Variant	self-cleavage kobs at 40 uM GlcN6P (glucosamine-6-phosphate [1])	self-cleavage kobs at 2500 uM GlcN6P (glucosamine-6-phosphate [2])	self-cleavage kobs at 10000 uM GlcN6P (glucosamine-6-phosphate [3])	self-cleavage kobs at 640 uM GlcN6P (glucosamine-6-phosphate [4])	self-cleavage kobs at 160 uM GlcN6P (glucosamine-6-phosphate [5])
A14G G32A U49A	< 1e-05 s⁻¹	–	–	–	–
A14G G35C A42G G43U U56C C61A	< 1e-05 s⁻¹	< 1e-05 s⁻¹	< 1e-05 s⁻¹	–	–
A14G G38U	< 1e-05 s⁻¹	–	–	< 1e-05 s⁻¹	< 1e-05 s⁻¹
A14G G51C	< 1e-05 s⁻¹	–	–	< 1e-05 s⁻¹	–
A14G G60A	< 1e-05 s⁻¹	–	–	–	< 1e-05 s⁻¹
A14G G62C	< 1e-05 s⁻¹	< 1e-05 s⁻¹	–	< 1e-05 s⁻¹	< 1e-05 s⁻¹
A14G U49C U54A U65C	< 1e-05 s⁻¹	–	–	–	–
A14G U54C	0.00134 ± 0.00025 s⁻¹	–	0.105 ± 0.042 s⁻¹	0.0185 ± 0.0064 s⁻¹	0.00536 ± 0.00096 s⁻¹
A14G U55C	0.00179 ± 0.00021 s⁻¹	–	0.0522 ± 0.015 s⁻¹	0.0382 ± 0.012 s⁻¹	0.00449 ± 0.00098 s⁻¹
A14G U55G	0.00161 ± 0.00014 s⁻¹	0.00953 ± 0.0023 s⁻¹	0.0589 ± 0.011 s⁻¹	0.00984 ± 0.0012 s⁻¹	0.00404 ± 0.00073 s⁻¹
A14G U56G	0.00201 ± 0.00033 s⁻¹	0.0673 ± 0.027 s⁻¹	0.0704 ± 0.02 s⁻¹	0.0223 ± 0.0035 s⁻¹	0.0087 ± 0.0018 s⁻¹
A14G U57G	< 1e-05 s⁻¹	–	–	–	–
A14U A15G G43C	< 1e-05 s⁻¹	–	–	< 1e-05 s⁻¹	–
A14U A36G G40U A48C	< 1e-05 s⁻¹	–	< 1e-05 s⁻¹	–	–
A14U A42G	0.000273 ± 3.1e-05 s⁻¹	0.00517 ± 0.001 s⁻¹	0.0147 ± 0.0018 s⁻¹	0.00347 ± 0.00055 s⁻¹	0.00064 ± 0.00015 s⁻¹
A14U A53U C71U	9.83e-05 ± 2.7e-05 s⁻¹	0.00145 ± 0.00032 s⁻¹	0.00546 ± 0.0013 s⁻¹	0.000509 ± 8.6e-05 s⁻¹	0.00021 ± 4.5e-05 s⁻¹
A14U C16A U31C U49G G59U	< 1e-05 s⁻¹	–	–	–	–
A14U C34A	< 1e-05 s⁻¹	< 1e-05 s⁻¹	–	< 1e-05 s⁻¹	< 1e-05 s⁻¹
A14U C34U A52G U55C G59A C71U	< 1e-05 s⁻¹	–	–	< 1e-05 s⁻¹	–
A14U C50A A53G C70A	< 1e-05 s⁻¹	7.44e-05 ± 1.4e-05 s⁻¹	–	–	–
A14U G29U	2.02e-05 ± 9.5e-06 s⁻¹	0.000222 ± 2e-05 s⁻¹	0.000381 ± 3.2e-05 s⁻¹	0.000104 ± 9.7e-06 s⁻¹	3.57e-05 ± 7.2e-06 s⁻¹
A14U G37U G59U C61A	< 1e-05 s⁻¹	–	–	–	–
A14U G41C C70G	0.000998 ± 0.00029 s⁻¹	–	–	–	–

Variant	self-cleavage kobs at 40 uM GlcN6P (glucosamine-6-phosphate [1])	self-cleavage kobs at 2500 uM GlcN6P (glucosamine-6-phosphate [2])	self-cleavage kobs at 10000 uM GlcN6P (glucosamine-6-phosphate [3])	self-cleavage kobs at 640 uM GlcN6P (glucosamine-6-phosphate [4])	self-cleavage kobs at 160 uM GlcN6P (glucosamine-6-phosphate [5])
A14U G59C	< 1e-05 s⁻¹	–	< 1e-05 s⁻¹	< 1e-05 s⁻¹	< 1e-05 s⁻¹
A14U G60U	< 1e-05 s⁻¹	< 1e-05 s⁻¹	< 1e-05 s⁻¹	< 1e-05 s⁻¹	< 1e-05 s⁻¹
A14U G62U	< 1e-05 s⁻¹	< 1e-05 s⁻¹	< 1e-05 s⁻¹	< 1e-05 s⁻¹	–
A14U U30A	3.62e-05 ± 1e-05 s⁻¹	–	–	0.000337 ± 5.2e-05 s⁻¹	8.35e-05 ± 1.7e-05 s⁻¹
A14U U31C G51A	< 1e-05 s⁻¹	–	–	< 1e-05 s⁻¹	–
A14U U46G	1.98e-05 ± 6.9e-06 s⁻¹	0.000548 ± 0.0001 s⁻¹	0.00104 ± 0.00012 s⁻¹	0.000293 ± 4.6e-05 s⁻¹	9.07e-05 ± 2.1e-05 s⁻¹
A14U U49C G59C	< 1e-05 s⁻¹	–	–	–	–
A14U U55G	0.000209 ± 3.1e-05 s⁻¹	0.0041 ± 0.00047 s⁻¹	0.0105 ± 0.0021 s⁻¹	0.00176 ± 0.00023 s⁻¹	0.000508 ± 8e-05 s⁻¹
A14U U55G C61G	< 1e-05 s⁻¹	–	–	–	–
A14U U69C	0.000126 ± 2.3e-05 s⁻¹	0.000501 ± 0.00015 s⁻¹	0.00132 ± 0.00026 s⁻¹	0.000362 ± 4.8e-05 s⁻¹	0.000147 ± 2.2e-05 s⁻¹
A15C A39C C68G	< 1e-05 s⁻¹	–	< 1e-05 s⁻¹	< 1e-05 s⁻¹	< 1e-05 s⁻¹
A15C A52C	< 1e-05 s⁻¹	< 1e-05 s⁻¹	< 1e-05 s⁻¹	< 1e-05 s⁻¹	< 1e-05 s⁻¹
A15C A52U A53G U56C	< 1e-05 s⁻¹	–	–	–	–
A15C C16G G37A C71U	< 1e-05 s⁻¹	–	–	–	–
A15C C34U C67U C70U	< 1e-05 s⁻¹	–	–	–	–
A15C C61U U69G	< 1e-05 s⁻¹	–	< 1e-05 s⁻¹	–	–
A15C C68A	< 1e-05 s⁻¹	–	–	–	–
A15C G32U A42U	< 1e-05 s⁻¹	–	< 1e-05 s⁻¹	–	–
A15C G35A G41A G44A	< 1e-05 s⁻¹	< 1e-05 s⁻¹	–	–	–
A15C G37C G40A G43U	< 1e-05 s⁻¹	–	–	–	–
A15C G37U	< 1e-05 s⁻¹	–	< 1e-05 s⁻¹	< 1e-05 s⁻¹	–
A15C G38A U57G	< 1e-05 s⁻¹	–	–	–	–
A15C G38U G41A	< 1e-05 s⁻¹	–	< 1e-05 s⁻¹	–	–
